Measurements taken from the supplement of paper PMC4967469.
By IC50 is meant the dose at which the fit gives 50% viability; fits outside the tested doses are given as limits. AUC sums up the same curve from the lowest dose to the 256-fold higher top dose; it is 1 without any effect and falls as sensitivity rises. For some of these results: The top dose, if marked as inferred, comes from the curve model; the source does not state it. For some of these results: Where an entry number is given, a second screen of the drug exists; the two often differ.

How the values were obtained:
Experiment in all cases: Viability of human cancer cell lines after 72 h of drug (GDSC screen)
HG-5-88-01 = compound: COc1cc(N2CCC(C(N)=O)CC2)ccc1Nc1nc(N)c(Cl)c(Nc2ccccc2S(=O)(=O)C(C)C)n1 [HG-5-88-01]; conditions: top dose 10 µM; top dose inferred
Method: (§1)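 Human cancer cell lines in 384-well plates, medium with 10% serum, drug for 72 h over a 256-fold dose range (nine 2-fold or five 4-fold steps up to the top dose). Adherent lines were fixed and stained with the nucleic acid dye Syto60, suspension lines read with resazurin; signal relative to control wells, capped at 0 and 100%. One two-parameter sigmoid per drug and line, fitted in a mixed model over all curves with the slope shared within a line.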

OSI-930 = compound: O=C(Nc1ccc(OC(F)(F)F)cc1)c1sccc1NCc1ccnc2ccccc12 [OSI-930]; conditions: top dose 10.24 µM
Method: as §1

LAQ824 = compound: O=C(/C=C/c1ccc(CN(CCO)CCc2c[nH]c3ccccc23)cc1)NO [LAQ824]; conditions: top dose 1.024 µM; top dose inferred
Method: as §1

VNLG/124 = compound: CCCC(=O)OCc1ccc(OC(=O)/C=C(C)/C=C/C=C(C)/C=C/C2=C(C)CCCC2(C)C)cc1 [VNLG/124]; conditions: top dose 5.12 µM; top dose inferred
Method: as §1

Elesclomol = compound: CN(NC(=O)CC(=O)NN(C)C(=S)c1ccccc1)C(=S)c1ccccc1 [Elesclomol]; conditions: top dose 0.2 µM; top dose inferred
Method: as §1

Bleomycin = compound: Cc1c(N)nc([C@H](CC(N)=O)NC[C@H](N)C(N)=O)nc1C(=O)N[C@H](C(=O)N[C@H](C)[C@@H](O)[C@H](C)C(=O)N[C@H](C(=O)NCCc1nc(-c2nc(C(=O)NCCC[S+](C)C)cs2)cs1)[C@@H](C)O)[C@@H](OC1OC(CO)C(O)C(O)C1OC1OC(CO)C(O)C(OC(N)=O)C1O)c1cnc[nH]1 [Bleomycin]
Method: as §1

Tamoxifen = compound: CC/C(=C(\c1ccccc1)c1ccc(OCCN(C)C)cc1)c1ccccc1 [Tamoxifen]; conditions: top dose 5 µM
Method: as §1

BX-912 = compound: O=C(Nc1cccc(Nc2ncc(Br)c(NCCc3cnc[nH]3)n2)c1)N1CCCC1 [BX-912]; conditions: top dose 10.24 µM; top dose inferred
Method: as §1

Masitinib = compound: Cc1ccc(NC(=O)c2ccc(CN3CCN(C)CC3)cc2)cc1Nc1nc(-c2cccnc2)cs1 [Masitinib]; conditions: top dose 20 µM
Method: as §1

NSC-87877 = compound: O=S(=O)(O)c1ccc2cc(N=Nc3cc(S(=O)(=O)O)c4cccnc4c3O)ccc2c1 [NSC-87877]; conditions: top dose 16 µM; top dose inferred
Method: as §1

[1] = top dose 50 µM, screen: GDSC drug entry 1378, top dose inferred
[2] = top dose 64 µM, screen: GDSC drug entry 190

Row | Cell Line | AUC (HG-5-88-01) | IC50 (HG-5-88-01) [µM] | AUC (OSI-930) | IC50 (OSI-930) [µM] | AUC (LAQ824) | IC50 (LAQ824) [nM] | AUC (VNLG/124) | IC50 (VNLG/124) [µM] | AUC (Elesclomol) | IC50 (Elesclomol) [nM] | AUC (Bleomycin; [1]) | IC50 (Bleomycin; [1]) [µM] | AUC (Bleomycin; [2]) | IC50 (Bleomycin; [2]) [µM] | AUC (Tamoxifen) | IC50 (Tamoxifen) [µM] | AUC (BX-912) | IC50 (BX-912) [µM] | AUC (Masitinib) | IC50 (Masitinib) [µM] | AUC (NSC-87877) | IC50 (NSC-87877) [µM]
1 | OCUB-M (breast, adherent) | 0.972 | > 10 | 0.87 | 7.44 | 0.272 | 16.1 | 0.911 | > 5.12 | 0.845 | 117 | 0.563 | 4.53 | 0.386 | 2.04 | 0.974 | > 5 | 0.77 | 3.39 | 0.783 | 7.26 | 0.99 | > 16
2 | KURAMOCHI (ovary, adherent) | 0.971 | > 10 | 0.984 | > 10.2 | 0.436 | 41.6 | 0.984 | > 5.12 | 0.589 | 22.9 | 0.793 | 27.1 | 0.421 | 2.35 | 0.982 | > 5 | 0.974 | > 10.2 | 0.911 | > 20 | 0.97 | > 16
3 | SBC-3 (small cell lung carcinoma, adherent) | 0.968 | > 10 | 0.857 | 7.17 | 0.153 | 6.28 | 0.989 | > 5.12 | 0.402 | 6.92 | 0.463 | 2.5 | 0.155 | 0.398 | 0.988 | > 5 | 0.692 | 2.08 | 0.713 | 4.69 | 0.989 | > 16
4 | NCI-SNU-16 (stomach, suspension) | 0.93 | > 10 | 0.988 | > 10.2 | 0.773 | 353 | 0.99 | > 5.12 | 0.977 | > 200 | 0.91 | > 50 | 0.991 | > 64 | 0.947 | > 5 | 0.944 | > 10.2 | 0.979 | > 20 | 0.979 | > 16
5 | TE-5 (oesophagus, adherent) | 0.88 | > 10 | 0.978 | > 10.2 | 0.448 | 45.3 | 0.982 | > 5.12 | 0.529 | 15.2 | 0.783 | 24.6 | 0.582 | 6.93 | 0.974 | > 5 | 0.951 | > 10.2 | 0.97 | > 20 | 0.984 | > 16
6 | NCI-H1755 (lung adenocarcinoma, adherent) | 0.893 | > 10 | 0.917 | > 10.2 | 0.648 | 176 | 0.984 | > 5.12 | 0.497 | 12.3 | 0.879 | > 50 | 0.409 | 2.16 | 0.951 | > 5 | 0.79 | 5.39 | 0.881 | > 20 | 0.981 | > 16
7 | COLO-783 (melanoma, adherent) | 0.986 | > 10 | 0.991 | > 10.2 | 0.789 | 433 | 0.986 | > 5.12 | 0.821 | 110 | 0.971 | > 50 | 0.862 | 51.2 | 0.99 | > 5 | 0.991 | > 10.2 | 0.988 | > 20 | 0.989 | > 16
8 | SK-N-DZ (neuroblastoma, adherent) | 0.953 | > 10 | 0.983 | > 10.2 | 0.456 | 48.5 | 0.984 | > 5.12 | 0.839 | 133 | 0.644 | 7.8 | 0.888 | > 64 | 0.957 | > 5 | 0.929 | > 10.2 | 0.971 | > 20 | 0.987 | > 16
9 | H2869 (mesothelioma, adherent) | 0.88 | > 10 | 0.978 | > 10.2 | 0.582 | 113 | 0.984 | > 5.12 | 0.598 | 24.8 | 0.763 | 22.2 | 0.733 | 22 | 0.98 | > 5 | 0.764 | 4.58 | 0.968 | > 20 | 0.984 | > 16
10 | NCI-SNU-5 (stomach, suspension) | 0.988 | > 10 | 0.97 | > 10.2 | 0.722 | 276 | 0.982 | > 5.12 | 0.513 | 13.6 | 0.777 | 20.3 | 0.29 | 1.01 | 0.983 | > 5 | 0.989 | > 10.2 | 0.982 | > 20 | 0.982 | > 16
11 | DMS-53 (small cell lung carcinoma, adherent) | 0.981 | > 10 | 0.925 | > 10.2 | 0.766 | 403 | 0.983 | > 5.12 | 0.98 | > 200 | 0.845 | 40.1 | 0.916 | > 64 | 0.983 | > 5 | 0.988 | > 10.2 | 0.959 | > 20 | 0.988 | > 16
12 | NCI-H524 (small cell lung carcinoma, suspension) | 0.937 | > 10 | 0.991 | > 10.2 | 0.677 | 187 | 0.99 | > 5.12 | 0.677 | 36.7 | 0.916 | > 50 | 0.939 | > 64 | 0.984 | > 5 | 0.621 | 1.32 | 0.963 | > 20 | 0.989 | > 16
13 | ES4 (Ewing sarcoma, adherent) | 0.907 | > 10 | 0.916 | > 10.2 | 0.282 | 14 | 0.846 | 4.62 | 0.39 | 5.96 | 0.429 | 1.93 | 0.118 | < 0.25 | 0.98 | > 5 | 0.828 | 7.63 | 0.856 | 19.9 | 0.974 | > 16
